From PMC4336329 (PLoS ONE, 2015)
Screen size: about 310,000 compounds; about 14,000 (4.5%) showed an effect of 50% or more. Effects have a minus sign here. The list shows a part of the results.

biological target: human ether-à-go-go-related gene (hERG) potassium channel (human, UniProt Q12809); experiment: primary screen, population patch clamp on CHO cells stably expressing hERG
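Further: peak tail current of the secondary pulse compared with the same well before compound.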

Sequence of human ether-à-go-go-related gene (hERG) potassium channel (Q12809 whole entry, looked up): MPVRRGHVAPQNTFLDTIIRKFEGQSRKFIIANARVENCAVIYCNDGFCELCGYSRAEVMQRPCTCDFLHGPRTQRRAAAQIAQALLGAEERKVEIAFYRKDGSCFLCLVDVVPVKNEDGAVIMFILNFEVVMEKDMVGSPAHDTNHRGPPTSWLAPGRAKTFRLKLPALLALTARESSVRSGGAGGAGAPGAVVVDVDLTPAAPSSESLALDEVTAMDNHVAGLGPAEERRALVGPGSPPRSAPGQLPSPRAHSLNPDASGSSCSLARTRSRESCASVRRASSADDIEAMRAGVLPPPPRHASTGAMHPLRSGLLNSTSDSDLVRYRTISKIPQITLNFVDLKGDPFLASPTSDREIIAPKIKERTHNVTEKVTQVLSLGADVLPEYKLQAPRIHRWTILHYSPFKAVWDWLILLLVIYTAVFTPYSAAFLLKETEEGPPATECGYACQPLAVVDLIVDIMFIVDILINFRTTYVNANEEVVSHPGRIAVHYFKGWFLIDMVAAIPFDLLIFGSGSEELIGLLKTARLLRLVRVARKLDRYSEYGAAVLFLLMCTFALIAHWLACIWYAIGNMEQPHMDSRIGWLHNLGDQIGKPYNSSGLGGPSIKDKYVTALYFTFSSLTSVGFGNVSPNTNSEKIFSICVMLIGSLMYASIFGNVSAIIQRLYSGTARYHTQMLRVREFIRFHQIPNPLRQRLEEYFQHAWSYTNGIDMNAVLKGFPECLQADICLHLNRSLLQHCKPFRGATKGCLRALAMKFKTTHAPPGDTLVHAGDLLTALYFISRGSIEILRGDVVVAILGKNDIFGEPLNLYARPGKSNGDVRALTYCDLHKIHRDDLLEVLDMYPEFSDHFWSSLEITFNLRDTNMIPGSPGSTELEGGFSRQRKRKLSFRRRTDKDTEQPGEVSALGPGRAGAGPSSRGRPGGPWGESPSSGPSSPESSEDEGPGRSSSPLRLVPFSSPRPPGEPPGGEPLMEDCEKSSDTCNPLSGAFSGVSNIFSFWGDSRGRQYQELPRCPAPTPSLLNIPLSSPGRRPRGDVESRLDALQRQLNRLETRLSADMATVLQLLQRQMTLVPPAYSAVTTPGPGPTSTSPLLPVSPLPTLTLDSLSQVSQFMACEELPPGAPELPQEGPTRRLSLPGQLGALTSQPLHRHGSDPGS

| SMILES | hERG current change (%, negative = inhibition) at 10uM |
| --- | --- |
| O=C(c1ccc(C(F)(F)F)cc1)C1CCCN(C(=O)CCc2ccncc2)C1 (centres unmarked) | -59.4% |
| O=C(C(=S)N1CCOCC1)c1c[nH]c2ccccc12 | 6.6% |
| C[C@H]1C=C(C(=O)NCc2ccccc2)O[C@@H](OCc2ccc(CO)cc2)C1 | -10.5% |
| Cc1cc(N2CCC(C)CC2)n2ncc(-c3ccccc3)c2n1 | 1.06% |
| CC(Oc1ccccc1)C(=O)N=C1SC2CS(=O)(=O)CC2N1c1ccccc1 (centres unmarked) | -8.26% |
| Cc1nc(NC(=O)COC(=O)c2cc3c(s2)CCC(C)C3)c(Cl)cc1Cl (centres unmarked) | 12.4% |
| O=C(COC(=O)c1cc(Cl)ccc1Cl)Nc1ccc2[nH]c(=O)[nH]c2c1 | -5.72% |
| O=C(Nc1ccccc1)NC1CS(=O)(=O)CC1O (centres unmarked) | -0.111% |
| CCn1c(-c2ccc(F)cc2)cnc1SCC(=O)N1CCc2ccccc21 | -1.67% |
| CCOC(=O)C1CCN(c2nc3c(C)cccn3c(=O)c2/C=C(\C#N)S(=O)(=O)c2ccccc2)CC1 | -18.1% |
| Cc1cc(C)c(S(=O)(=O)Nc2ncccc2C)c(C)c1 | -10.7% |
| CCn1cc(CN2CCc3c([nH]c4ccccc34)C2c2cccc(OC)c2OC)c(C)n1 (centres unmarked) | 7.99% |
| CNC(=O)c1ccccc1Sc1ccccc1CO | 27.9% |
| NS(=O)(=O)c1ccc(NC(=S)NC(=O)c2ccc(Br)o2)cc1 | 25.1% |
| Cc1cc(C(=O)COC(=O)/C=C/c2cccc(F)c2)c(C)n1C | 10.6% |
| Cc1[nH]c2ccccc2c1C1=NNC(=Nc2ccc(F)cc2)SC1 | 17.7% |
| COc1ccc(C(CNC(=O)c2ccc(Cl)c(S(=O)(=O)N3CCCC3)c2)N2CCCC2)cc1 (centres unmarked) | -57.6% |
| O=C(CN1C(=O)CCSc2ccccc21)NC1CCCCC1 | 4.58% |
| O=C(NC1(C(F)(F)F)NC(=O)N(c2ccc(F)cc2)C1=O)c1ccncc1 (centres unmarked) | -5.28% |
| O=C(Cc1ccc(Cl)cc1Cl)NC1CCCCCC1 | -1.59% |
| COc1ccc(O)c(C(=O)c2cc(SCC(=O)O)c3nc4sc5c(c4c(=O)n3c2)CCCC5)c1 | 6.54% |
| CCOc1ccccc1CN1CCN(Cc2nc3ccccc3s2)CC1CCO (centres unmarked) | -74.8% |

| SMILES | hERG current change (%, negative = inhibition) at 10uM |
| --- | --- |
| Cc1cc2c3c(c1C)C1(C(=O)N3C(C)(C)CC2C)C(C#N)=C(N)OC2=C1C(=O)CC(C)(C)C2 (centres unmarked) | -1.25% |
| O=C(C1CCCO1)N1CCN(C(=S)Nc2ccc(Cl)c(Cl)c2)CC1 (centres unmarked) | -30.2% |
| COc1ccc(CC(=O)Nc2ccccc2N2CCCC2)cc1 | -6.14% |
| CC1CCCCC1NC(=O)COC(=O)/C=C/c1ccco1 (centres unmarked) | -1.9% |
| CCOc1[nH]n(-c2ccccc2)c(=O)c1C=Nc1ccc(OC)cc1 | 1% |
| COc1ccc(-c2cc(N3C(=O)Nc4ccccc4N3O)n[nH]2)cc1OC | 3.84% |
| Cc1ccc(CNC(=S)N2CCOCC2)cc1 | 4.71% |
| CCCCC(=O)N1CC(=O)Nc2ccc(F)cc2C1c1ccc(F)cc1 (centres unmarked) | 15.2% |
| O=C(Nc1ccccc1C(F)(F)F)N1CCC(n2c(=O)[nH]c3ccccc32)CC1 | 4.3% |
| CC(C)c1ccc(C(=O)OCC(=O)NC2CCCC2)cc1 | 17% |
| Cc1c(C=O)c2ccccn2c1C(=O)c1ccccc1Cl | 10.6% |
| CC(=O)Nc1ccc2c(c1)nc(CCNC(=O)c1ccccc1)n2C | 10.5% |
| Cc1cccc(NC(=O)C2CCN(S(=O)(=O)c3c(C)nn(C)c3C)CC2)n1 | 12.3% |
| O=C(Nc1cc(Cl)ccc1-n1cncn1)c1cc(F)c(F)c(F)c1F | -27.9% |
| Cc1cc(C)nc(SSc2nc(C)cc(C)n2)n1 | 14.9% |
| O=C(NC(c1ccccc1)c1ccccn1)c1cccc([N+](=O)[O-])c1 (centres unmarked) | -15.9% |
| CS(=O)(=O)NNC(=O)c1csc(Cc2c(Cl)sc3ccc(Cl)cc23)n1 | 9.41% |
| CC(CCc1ccc(O)cc1)NCCc1ccc(O)c(O)c1.Cl (centres unmarked) | -13.9% |
| CC(C)C(NC(=O)c1ccc(C(C)(C)C)cc1)C(=O)NCC(c1ccccc1)N(C)C (centres unmarked) | -18.7% |
| O=C(Cn1nc(Cl)nc1Cl)Nc1ccccc1 | -1.44% |
| COc1ccc(C(=O)Nc2ccc(S(=O)(=O)Nc3nccc(C)n3)cc2)cc1[N+](=O)[O-] | 16.2% |
| CC(=O)Nc1sc2c(c1CN1CCN(C)CC1)CCCC2 | -1.92% |
